Source: US20240116985A1, “STAPLED PEPTIDES AND METHODS THEREOF” (priority 2020, published 2024)
Where two headings read alike, the source gives them in different places. Not every detail of the peptide structures is certain; ends, links or a residue may be inferred. At least one compound was matched to its structure with a doubt left.

Key:
[1] = molecular target: T1, full-length beta-Catenin (Uniprot ID P35222) (Homo sapiens, UniProt P35222); test: Fluorescence polarization IC50 (beta-catenin / 5FAM-TCF4 10-53 competition); assay type: binding; conditions: read-out: beta-Catenin FP IC50
T1 construct: 10 nM full-length beta-Catenin (Uniprot ID P35222)
T1 sequence (P35222 1-781): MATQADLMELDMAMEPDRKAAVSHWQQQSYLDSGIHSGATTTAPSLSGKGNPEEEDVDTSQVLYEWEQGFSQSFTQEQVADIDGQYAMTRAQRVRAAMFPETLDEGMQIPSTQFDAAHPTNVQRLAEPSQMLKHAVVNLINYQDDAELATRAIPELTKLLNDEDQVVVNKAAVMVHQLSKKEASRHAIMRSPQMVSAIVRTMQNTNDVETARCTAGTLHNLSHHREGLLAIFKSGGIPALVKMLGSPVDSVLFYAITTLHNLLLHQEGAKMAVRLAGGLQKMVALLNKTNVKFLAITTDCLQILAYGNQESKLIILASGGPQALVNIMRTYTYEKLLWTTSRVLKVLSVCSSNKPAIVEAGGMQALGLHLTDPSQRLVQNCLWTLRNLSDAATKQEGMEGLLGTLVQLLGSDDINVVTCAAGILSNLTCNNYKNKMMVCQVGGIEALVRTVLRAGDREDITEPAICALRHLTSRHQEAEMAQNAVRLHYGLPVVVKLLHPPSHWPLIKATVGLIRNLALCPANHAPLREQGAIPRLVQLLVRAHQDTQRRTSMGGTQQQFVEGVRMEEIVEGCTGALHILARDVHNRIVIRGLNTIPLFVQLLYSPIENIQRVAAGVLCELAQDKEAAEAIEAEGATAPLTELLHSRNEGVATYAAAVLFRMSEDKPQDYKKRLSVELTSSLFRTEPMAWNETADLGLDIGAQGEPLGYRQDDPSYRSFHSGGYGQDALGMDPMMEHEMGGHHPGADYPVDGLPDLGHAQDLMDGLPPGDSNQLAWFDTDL

[2] = molecular target: T2, beta-catenin/TCF4 engagement (Homo sapiens, UniProt P35222); test: Nano-BRET target engagement assay (B-cat-Halo & TCF4-Luc in HEK293 cells); assay type: cell-based; conditions: read-out: NanoBRET Abs IC50
T2 construct: expressed in transfected cells; host or cells: HEK293
T2 sequence (P35222 1-781): T1 sequence (P35222 1-781)

SMILES | IC50 [1] | IC50 [2] | IC50 ([1]; fluorescence polarization) | IC50 ([2]; absolute IC50)
CC(=O)N1CCC[C@]12CC=CCCCC1(CCCC=CCCCCCC[C@@](C)(C(=O)N[C@@H](Cc3ccsc3)C(=O)N[C@@H](Cc3csc4ccccc34)C(=O)N[C@@H](CCC(N)=O)C(=O)N[C@H](C)C(=O)N[C@H](C)C(=O)N[C@H](C)C(N)=O)NC(=O)[C@H](CC(N)=O)NC(=O)[C@H](Cc3ccccc3)NC(=O)[C@H](C)NC(=O)[C@H](C)NC(=O)[C@H](CC(=O)O)NC(=O)[C@H](CC(=O)O)NC1=O)NC(=O)[C@H](CC(C)(C)C)NC(=O)[C@H](CC(=O)O)NC2=O (stereo partly drawn) [I-876, Ac-PL3-Asp-Npg-B5-Asp-Asp-Ala-Ala-Phe-Asn-S8-3Thi-BztA-Gln-dAla-dAla] | 0.024 µM | 13.2 µM |  | 
CC(=O)N1CCC[C@]12CC=CCCCC1(CCCC=CCCCCCC[C@@](C)(C(=O)N[C@@H](Cc3ccsc3)C(=O)N[C@@H](Cc3csc4ccccc34)C(=O)N[C@@H](CCC(N)=O)C(=O)N[C@@H](C)C(=O)N[C@@H](C)C(=O)N[C@H](C)C(N)=O)NC(=O)[C@H](CC(N)=O)NC(=O)[C@H](Cc3ccccc3)NC(=O)[C@H](C)NC(=O)[C@H](C)NC(=O)[C@H](CC(=O)O)NC(=O)[C@H](CC(=O)O)NC1=O)NC(=O)[C@H](CC(C)(C)C)NC(=O)[C@H](CC(=O)O)NC2=O (stereo partly drawn) [I-877, Ac-PL3-Asp-Npg-B5-Asp-Asp-Ala-Ala-Phe-Asn-S8-3Thi-BztA-Gln-Ala-Ala] | 0.011 µM | 15.6 µM |  | 
CC(=O)N1CCC[C@]12CC=CCCCC1(CCCC=CCCCOC(=O)N3CC[C@@](C(=O)N[C@@H](Cc4ccccc4Br)C(=O)N[C@@H](Cc4csc5ccccc45)C(=O)N[C@@H](CCC(N)=O)C(N)=O)(C3)NC(=O)[C@H](CC(C)C)NC(=O)[C@H](Cc3ccccc3)NC(=O)[C@H](C)NC(=O)[C@H](C)NC(=O)[C@H](CC(=O)O)NC(=O)[C@H](CC(=O)O)NC1=O)NC(=O)[C@H](CC(C)(C)C)NC(=O)[C@H](CC(=O)O)NC2=O (stereo partly drawn) [I-1324, PL3-Asp-Npg-B5-Asp-Asp-Ala-Ala-Phe-Leu-PyrS2-2BrF-BztA-Gln-NH2] |  |  | 0.014 µM | 5.8 µM
CC(=O)N1CCC[C@]12CC=CCCCC1(CCCC=CCCCOC(=O)N3CC[C@@](C(=O)N[C@@H](Cc4ccsc4)C(=O)N[C@@H](Cc4csc5ccccc45)C(=O)N[C@@H](CCC(N)=O)C(N)=O)(C3)NC(=O)[C@H](CC(N)=O)NC(=O)[C@H](Cc3ccccc3)NC(=O)[C@H](C)NC(=O)[C@H](C)NC(=O)[C@H](CN(CCC(F)(F)C(F)(F)F)CC(=O)O)NC(=O)[C@H](CC(=O)O)NC1=O)NC(=O)[C@H](CC(C)(C)C)NC(=O)[C@H](CC(=O)O)NC2=O (stereo partly drawn) [I-1734, Ac-PL3-Asp-Npg-B5-Asp-[Pfb]GA-Ala-Ala-Phe-Asn-PyrS2-3Thi-BztA-Gln-NH2] |  |  | 0.008 µM | 
CC(=O)N1CCC[C@]12CC=CCCCC1(CCCC=CCCCOC(=O)N3CC[C@@](C(=O)N[C@@H](Cc4ccsc4)C(=O)N[C@@H](Cc4csc5ccccc45)C(=O)N[C@@H](CCC(=O)N4CCCCC4)C(=O)N[C@@H](C)C(N)=O)(C3)NC(=O)[C@H](CC(C)C)NC(=O)[C@H](Cc3ccccc3)NC(=O)[C@H](C)NC(=O)[C@H](C)NC(=O)[C@H](CN(CC(=O)O)CC(F)(F)F)NC(=O)[C@H](CC(=O)O)NC1=O)NC(=O)[C@H](CC(C)(C)C)NC(=O)[C@H](CC(=O)O)NC2=O (stereo partly drawn) [I-2474, Ac-PL3-Asp-Npg-B5-Asp-TfeGA-Ala-Ala-Phe-Leu-PyrS2-3Thi-BztA-[Pip]GlnR-Ala-NH2] |  |  | 0.019 µM | 
CC[C@@H]1NC(=O)[C@H](Cc2ccccc2)NC(=O)[C@H](C)NC(=O)[C@H](C)NC(=O)[C@H](Cc2cccc(C(=O)O)c2)NC(=O)[C@H](CC(=O)O)NC(=O)C2(CCCC=CCCCOC(=O)N3CC[C@@](C(=O)N[C@@H](Cc4ccccc4C(F)(F)F)C(=O)N[C@@H](Cc4csc5ccccc45)C(=O)N[C@@H](CCC(=O)N4CCCCC4)C(=O)N[C@@H](C)C(N)=O)(C3)NC1=O)CCCC=CC[C@]1(CCCN1C(C)=O)C(=O)N[C@@H](CC(=O)O)C(=O)N[C@@H](CC(C)(C)C)C(=O)N2 (stereo partly drawn) [I-2475, Ac-PL3-Asp-Npg-B5-Asp-3COOHF-Ala-Ala-Phe-Abu-PyrS2-2F3MeF-BztA-[Pip ]GlnR-Ala-NH2] |  |  | 0.028 µM | 
CC(C)C[C@H](NC(=O)[C@]12CCN(C1)C(=O)OCCCCCCCCC1(CCCCCCCCCC(=O)N3CCC[C@@]3(C)C(=O)N[C@@H](CC(=O)O)C(=O)N1)C(=O)N[C@@H](C)C(=O)N[C@@H](CC(=O)O)C(=O)N[C@@H](CC(=O)O)C(=O)N[C@@H](C)C(=O)N[C@@H](C)C(=O)N[C@@H](Cc1ccccc1)C(=O)N2)C(=O)N[C@@H](Cc1ccsc1)C(=O)N[C@@H](Cc1csc2ccccc12)C(=O)N[C@@H](CCC(N)=O)C(N)=O (stereo partly drawn) [I-2609, 5hexenyl-MePro-Asp-B5-Ala-Asp-Asp-Ala-Ala-Phe-PyrS2-Leu-3Thi-BztA-Gln-NH2] |  |  | 2.65 µM | 
